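All cell lines were grown in 96-well plates and treated with compound for 48 hours. GI50: concentration for 50% inhibition of growth.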 Not every entry of the source has a single result; some have several. This is not the full list of results. An entry can have further records. For part of these data: Records of one sample usually come from different ranges of test concentrations, which the source does not state; a value can be the end of its range. Marks in square brackets tell the records apart. The letters are not those of the source and start again with each entry.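 TGI: concentration producing complete growth inhibition.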 For part of these data: Values given together are repeated measurements in other runs, samples, wells, individuals or studies.
Columns and labels:
Assay in all cases: NCI-60 cell line screen, 48 h
HOP-62 NSCLC = tested on: HOP-62 NSCLC
SF-268 CNS = tested on: SF-268 CNS
OVCAR-8 ovarian = tested on: OVCAR-8 ovarian
NCI-H460 lung = tested on: NCI-H460 lung
A498 renal = tested on: A498 renal
SNB-75 CNS = tested on: SNB-75 CNS
COLO 205 colon = tested on: COLO 205 colon
HOP-92 NSCLC = tested on: HOP-92 NSCLC
DMS 273 small cell lung = tested on: DMS 273 small cell lung
DU-145 prostate = tested on: DU-145 prostate
MALME-3M melanoma = tested on: MALME-3M melanoma
M14 melanoma = tested on: M14 melanoma
K-562 leukemia = tested on: K-562 leukemia
SN12K1 renal = tested on: SN12K1 renal
HCT-15 colon = tested on: HCT-15 colon
OVCAR-3 ovarian = tested on: OVCAR-3 ovarian
SK-MEL-28 melanoma = tested on: SK-MEL-28 melanoma
OVCAR-5 ovarian = tested on: OVCAR-5 ovarian
SR leukemia = tested on: SR leukemia
NCI-H23 lung = tested on: NCI-H23 lung
NCI/ADR-RES ovarian = tested on: NCI/ADR-RES ovarian
NCI-H522 lung = tested on: NCI-H522 lung
SN12C renal = tested on: SN12C renal
MDA-MB-231 breast = tested on: MDA-MB-231 breast
UACC-62 melanoma = tested on: UACC-62 melanoma
MDA-N = tested on: MDA-N
786-0 renal = tested on: 786-0 renal
SNB-19 CNS = tested on: SNB-19 CNS
CCRF-CEM leukemia = tested on: CCRF-CEM leukemia

Question: With `Nc1ncn(C2OC(CO)C(O)C2O)c(=O)n1` (stereo not drawn) as the compound, how does the TGI (HOP-62 NSCLC) read?
Answer: Its TGI is 128 µM [sample A, mean of 12 tests] and 8.99 µM [sample B, mean of 3 tests] and 3.44 µM [sample B, mean of 6 tests] and 2.09 µM [sample B, mean of 7 tests].

Question: What about the TGI (SF-268 CNS) of the same compound?
Answer: Its TGI is > 250 µM [sample A, mean of 15 tests] and 62.3 µM [sample B, mean of 10 tests] and 33.5 µM [sample B, mean of 3 tests] and 30.3 µM [sample B, mean of 6 tests].

Question: And the TGI (OVCAR-8 ovarian)?
Answer: The TGI was > 250 µM [sample A, mean of 14 tests] and 7.69 µM [sample B, mean of 10 tests] and 17.6 µM [sample B, mean of 3 tests] and 22.6 µM [sample B, mean of 6 tests].

Question: What about the GI50 (NCI-H460 lung) of the same compound?
Answer: Its GI50 is 3.12 µM [sample A, 1 test] and 5.6 µM [sample A, mean of 15 tests] and 263 nM [sample B, mean of 3 tests] and 133 nM [sample B, mean of 5 tests] and 403 nM [sample B, mean of 7 tests].

Question: And the TGI (NCI-H460 lung)?
Answer: Its TGI is 14.9 µM [sample A, 1 test] and 164 µM [sample A, mean of 15 tests] and 3.2 µM [sample B, mean of 3 tests] and 1.38 µM [sample B, mean of 5 tests] and 3.51 µM [sample B, mean of 7 tests].

Question: And the TGI (A498 renal)?
Answer: The TGI was > 250 µM [sample A, mean of 14 tests] and 7.81 µM [sample B, mean of 3 tests] and 5.44 µM [sample B, mean of 5 tests] and 5.2 µM [sample B, mean of 9 tests].

Question: And the TGI (SNB-75 CNS)?
Answer: Its TGI is > 250 µM [sample A, mean of 11 tests] and 28.6 µM [sample B, mean of 3 tests] and 15.3 µM [sample B, mean of 5 tests] and 22.4 µM [sample B, mean of 7 tests].

Question: What about the TGI (COLO 205 colon) of the same compound?
Answer: Its TGI is > 250 µM [sample A, mean of 13 tests] and 6.51 µM [sample B, mean of 2 tests] and 4.97 µM [sample B, mean of 4 tests] and 2.07 µM [sample B, mean of 8 tests].

Question: What about the TGI (HOP-92 NSCLC) of the same compound?
Answer: Its TGI is > 99.5 µM [sample A, mean of 10 tests] and 7.3 µM [sample B, mean of 3 tests] and 19.1 µM [sample B, mean of 5 tests] and 11.2 µM [sample B, mean of 7 tests].

Question: And the TGI (DMS 273 small cell lung)?
Answer: Its TGI is > 250 µM [sample A, mean of 7 tests] and 6.95 µM [sample B, mean of 4 tests].

Question: What about the GI50 (DU-145 prostate) of the same compound?
Answer: Its GI50 is 247 µM [sample A, mean of 4 tests] and 283 nM [sample B, mean of 2 tests] and 805 nM [sample B, mean of 3 tests] and 495 nM [sample B, mean of 5 tests].

Question: What about the TGI (DU-145 prostate) of the same compound?
Answer: The TGI was > 250 µM [sample A, mean of 4 tests] and 7.55 µM [sample B, mean of 2 tests] and 10.9 µM [sample B, mean of 3 tests] and 4.97 µM [sample B, mean of 5 tests].

Question: What about the TGI (MALME-3M melanoma) of the same compound?
Answer: Its TGI is 173 µM [sample A, mean of 14 tests] and 8.9 µM [sample B, mean of 3 tests] and 14.3 µM [sample B, mean of 6 tests] and 6.07 µM [sample B, mean of 9 tests].

Question: What about the TGI (M14 melanoma) of the same compound?
Answer: The TGI was > 250 µM [sample A, mean of 4 tests] and 6.95 µM [sample B, mean of 3 tests] and 3.4 µM [sample B, mean of 4 tests] and 5.98 µM [sample B, mean of 6 tests].

Question: What about the GI50 (K-562 leukemia) of the same compound?
Answer: The GI50 was 165 µM [sample A, mean of 13 tests] and 559 nM [sample B, mean of 10 tests] and 426 nM [sample B, mean of 3 tests] and 669 nM [sample B, mean of 5 tests].

Question: And the TGI (K-562 leukemia)?
Answer: The TGI was > 209 µM [sample A, mean of 13 tests] and 17.2 µM [sample B, mean of 10 tests] and > 52.9 µM [sample B, mean of 3 tests] and 64.7 µM [sample B, mean of 5 tests].

Question: And the TGI (SN12K1 renal)?
Answer: The TGI was > 250 µM [sample A, mean of 9 tests] and 7.01 µM [sample B, mean of 4 tests].

Question: What about the TGI (HCT-15 colon) of the same compound?
Answer: Its TGI is > 250 µM [sample A, mean of 14 tests] and > 55.5 µM [sample B, mean of 3 tests] and 73.2 µM [sample B, mean of 5 tests] and 13.3 µM [sample B, mean of 7 tests].

Question: What about the GI50 (OVCAR-3 ovarian) of the same compound?
Answer: Its GI50 is > 237 µM [sample A, mean of 12 tests] and 2.24 µM [sample B, mean of 3 tests] and 1 µM, 1.26 µM [sample B, mean of 5 tests].

Question: What about the TGI (OVCAR-3 ovarian) of the same compound?
Answer: Its TGI is > 250 µM [sample A, mean of 12 tests] and 7.04 µM [sample B, mean of 3 tests] and 3.64 µM, 5.09 µM [sample B, mean of 5 tests].

Question: And the TGI (SK-MEL-28 melanoma)?
Answer: The TGI was > 250 µM [sample A, mean of 15 tests] and 11.4 µM [sample B, mean of 10 tests] and 16.3 µM [sample B, mean of 3 tests] and 14.8 µM [sample B, mean of 6 tests].

Question: What about the TGI (OVCAR-5 ovarian) of the same compound?
Answer: Its TGI is > 223 µM [sample A, mean of 14 tests] and 63.3 µM [sample B, mean of 3 tests] and 60.8 µM [sample B, mean of 6 tests] and 49.9 µM [sample B, mean of 9 tests].

Question: What about the TGI (SR leukemia) of the same compound?
Answer: The TGI was > 250 µM [sample A, mean of 2 tests] and 3.13 µM [sample B, mean of 2 tests] and 16.9 µM [sample B, mean of 3 tests] and 30.5 µM [sample B, mean of 4 tests].

Question: What about the TGI (NCI-H23 lung) of the same compound?
Answer: Its TGI is > 191 µM [sample A, mean of 13 tests] and 25.8 µM [sample B, mean of 3 tests] and 22.9 µM [sample B, mean of 6 tests] and 36 µM [sample B, mean of 8 tests].

Question: And the TGI (NCI/ADR-RES ovarian)?
Answer: Its TGI is > 212 µM [sample A, mean of 14 tests] and 20.1 µM [sample B, mean of 10 tests] and 15.6 µM [sample B, mean of 3 tests] and 57.3 µM [sample B, mean of 6 tests].

Question: What about the TGI (NCI-H522 lung) of the same compound?
Answer: Its TGI is > 250 µM [sample A, mean of 15 tests] and 10 µM [sample B, mean of 3 tests] and 6.65 µM [sample B, mean of 5 tests] and 4.19 µM [sample B, mean of 7 tests].

Question: And the TGI (SN12C renal)?
Answer: The TGI was > 250 µM [sample A, mean of 12 tests] and 20.9 µM [sample B, mean of 3 tests] and 43.4 µM [sample B, mean of 5 tests] and 10.9 µM [sample B, mean of 8 tests].

Question: What about the TGI (MDA-MB-231 breast) of the same compound?
Answer: Its TGI is > 250 µM [sample A, mean of 4 tests] and 9.58 µM [sample B, mean of 3 tests] and 4.49 µM, 2.11 µM [sample B, mean of 4 tests].

Question: What about the TGI (UACC-62 melanoma) of the same compound?
Answer: The TGI was > 250 µM [sample A, mean of 14 tests] and 4.63 µM [sample B, mean of 10 tests] and 4.31 µM [sample B, mean of 3 tests] and 4.38 µM [sample B, mean of 5 tests].

Question: And the TGI (MDA-N)?
Answer: The TGI was 18.5 µM [sample A, 1 test] and > 250 µM [sample A, mean of 3 tests] and 9.28 µM, 5.67 µM [sample B, mean of 4 tests].

Question: What about the TGI (786-0 renal) of the same compound?
Answer: Its TGI is > 250 µM [sample A, mean of 4 tests] and 32.4 µM, 58 µM [sample B, mean of 3 tests] and 12.3 µM [sample B, mean of 6 tests].

Question: What about the TGI (SNB-19 CNS) of the same compound?
Answer: Its TGI is > 250 µM [sample A, mean of 15 tests] and 64.7 µM [sample B, mean of 3 tests] and 55.7 µM [sample B, mean of 6 tests] and 62.6 µM [sample B, mean of 7 tests].

Question: What about the GI50 (CCRF-CEM leukemia) of the same compound?
Answer: The GI50 was 285 nM [sample A, 1 test] and 238 nM [sample A, mean of 15 tests] and 1.19 µM [sample B, mean of 3 tests] and 1.18 µM [sample B, mean of 5 tests] and 1.16 µM [sample B, mean of 6 tests].

Source: PubChem BioAssay (NCI)
